Reference: the supplement of paper PMC3334620
Over roughly 33,000 sequences, “E-score (-0.5 to 0.5)” has its median near -0.036; the highest 2% begin near 0.37. This is one part of the list.

What follows are sequences tested against T1, Yer064c (UniProt P40041) (assay: PBM E-score (8-mer binding enrichment) (E-score (-0.5 to 0.5)); higher = stronger / more preferred TF binding; most listed sequences are background and not binding sites). Details: protein concentration: 200 nM; construct: GST-full length.
T1 sequence: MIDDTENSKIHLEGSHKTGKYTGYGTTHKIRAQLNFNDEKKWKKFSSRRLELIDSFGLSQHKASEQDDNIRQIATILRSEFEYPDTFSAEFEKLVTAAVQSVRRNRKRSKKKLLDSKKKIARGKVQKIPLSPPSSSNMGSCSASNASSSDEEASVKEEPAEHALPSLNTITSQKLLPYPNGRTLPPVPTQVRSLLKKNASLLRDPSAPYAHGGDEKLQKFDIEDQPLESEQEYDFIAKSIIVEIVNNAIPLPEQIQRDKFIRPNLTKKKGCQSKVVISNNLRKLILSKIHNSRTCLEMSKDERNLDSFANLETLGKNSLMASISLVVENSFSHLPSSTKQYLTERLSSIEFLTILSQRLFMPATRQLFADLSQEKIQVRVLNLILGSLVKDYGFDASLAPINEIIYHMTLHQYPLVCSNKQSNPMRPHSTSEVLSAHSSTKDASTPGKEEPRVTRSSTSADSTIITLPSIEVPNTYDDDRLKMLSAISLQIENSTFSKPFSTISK
Procedure, shortened: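 Detection of bound protein used fluorescent anti-GST, with scans normalised by masliner. The proteins were GST-tagged yeast transcription factors applied at about 100-200 nM to universal all-10-mer Agilent arrays made double-stranded by primer extension. Each ungapped eight-base word, pooled with its reverse complement, was scored with an E-score from the Universal PBM Analysis Suite.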

| Sequence | PBM E-score |
| --- | --- |
| CCATCCTA | 0.0627 |
| ATTAACCC | 0.119 |
| ACTAGTGA | 0.105 |
| TAGAATCA | 0.362 |
| CTCCCTTA | -0.0979 |
| CCCATGTC | 0.00167 |
| AAGGTGCT | -0.24 |
| CCCAATGA | 0.118 |
| TCGAAAGA | 0.167 |
| GACTAGGC | 0.297 |
| CTAAGCAC | 0.0802 |
| GGTATGGA | -0.037 |
| AACAACCA | 0.13 |
| CTCCATCC | -0.118 |
| CATCACGG | -0.11 |
| ACGCGTAG | 0.0591 |
| GGATCTAC | -0.0229 |
| ATACAAGA | 0.0961 |
| CGATGTAA | -0.144 |
| AACTGACC | -0.163 |
| CACGAGAA | -0.2 |
| CTCGTGAA | 0.159 |
| CCATCGGA | -0.00521 |
| GACCTAGC | -0.158 |
| GCGGTTAA | 0.051 |

| Sequence | PBM E-score |
| --- | --- |
| GTGAACGA | -0.00316 |
| GCTTTTAC | -0.015 |
| CCGGCACA | -0.0422 |
| AGAGGCCG | -0.219 |
| ATATAAAA | 0.166 |
| ACGGTTTA | -0.133 |
| ACTTATCT | 0.169 |
| ATTGATGC | -0.0401 |
| CGATCGAG | 0.026 |
| GCATAACA | -0.121 |
| GCATGGAC | -0.091 |
| CTGAATCA | 0.455 |
| CAGACCGG | -0.211 |
| CGAGACAC | 0.13 |
| AGGCCAAC | -0.0789 |
| GTTGTTTA | 0.0972 |
| ATCTTGGA | 0.118 |
| ACTCTAGA | 0.281 |
| CCCTAATC | 0.0125 |
| CATGCCCA | -0.249 |
| ACGAAAGG | -0.126 |
| ACGAAGTC | 0.309 |
| ACACTCAT | 0.25 |
| GCGGCCGC | -0.326 |
| CAACGACG | -0.206 |

| Sequence | PBM E-score |
| --- | --- |
| AGCGTGTG | -0.0422 |
| ATAAACGA | 0.0651 |
| CGCATGCG | -0.285 |
| ACGGTCGA | -0.208 |
| CGTGGACA | -0.323 |
| AACCGTTG | -0.0353 |
| ACAGGGCC | -0.251 |
| CTAGGAAC | -0.187 |
| CTACAGCC | -0.134 |
| AAAACTGC | -0.0523 |
| CTGAATGA | 0.219 |
| AAAGCCGT | -0.171 |
| ATCTTTTA | 0.111 |
| GCACGGGC | -0.321 |
| ACGCGTCT | -0.322 |
| GACGTCAA | -0.0626 |
| ATAGAAGG | -0.119 |
| AGCCCCTG | -0.214 |
| AACCCTAA | -0.121 |
| GCAAGTGC | -0.297 |
| CTGCGCTC | -0.179 |
| AGTGCCCG | -0.24 |
| AACGTAAA | -0.0356 |
| ATGATGTG | 0.197 |
| ATAGGTCC | -0.0251 |

| Sequence | PBM E-score |
| --- | --- |
| CGTCAGAC | -0.124 |
| AGATTTTC | -0.0447 |
| AACGGCGC | -0.0388 |
| GTCTTTTA | 0.00579 |
| CGTCCGAA | -0.074 |
| CACGGCAG | -0.164 |
| TCTCGACA | -0.0599 |
| CACCTAAC | -0.079 |
| CTGGTTTA | 0.017 |
| GCTTTCGA | -0.197 |
| AGTACACA | 0.239 |
| CCACTTCG | -0.225 |
| CAACTGTA | -0.182 |
| CCCGAGGA | -0.251 |
| ATGTCAGG | -0.186 |
| ATTGTTTC | 0.24 |
| TCCCGTAA | -0.236 |
| CGACGCAG | -0.285 |
| GCTGAAGA | 0.0233 |
| AACAGCTG | 0.0922 |
| AACTGCAC | -0.0827 |
| AGAGAAAG | -0.131 |
| ATTGCTCA | 0.0986 |
| CAATCCGG | -0.0586 |
| CAGCTACC | -0.0757 |

| Sequence | PBM E-score |
| --- | --- |
| AGATTGTG | 0.0863 |
| ATTTGCTC | 0.0149 |
| CAGCGGAC | 0.00373 |
| AAGACAAA | 0.0693 |
| ATACCTCA | 0.0539 |
| ATTACAAC | -0.0222 |
| TAAAGGTA | 0.0493 |
| CTTTGATC | 0.043 |
| CACTAAAG | -0.0822 |
| CTGGATTC | 0.00174 |
| CAGCCCTG | -0.0512 |
| ACTTCCTC | -0.136 |
| GCTCCCAC | -0.201 |
| CAAACTAC | -0.0801 |
| AGCTGCCA | -0.216 |
| CGTTCCGC | 0.0429 |
| CCAGATCG | -0.362 |
| CGCAACAG | -0.12 |
| CCCACTTA | -0.0484 |
| ACATAGAA | -0.0976 |
| ATTTTCAA | 0.0969 |
| AAGTCGGC | -0.0537 |
| AATTTACG | -0.081 |
| ACCAGTCG | 0.172 |
| ATCGTGTC | -0.0149 |

| Sequence | PBM E-score |
| --- | --- |
| CAGAGAAA | -0.0599 |
| GCTCACAC | -0.00039 |
| GGTACGAA | 0.0766 |
| AGGCGAAT | 0.0274 |
| GAGATGCA | -0.0868 |
| ATGCTGGG | -0.17 |
| CGCTTGAA | 0.0409 |
| ATACATGG | -0.0135 |
| CAATCCCA | -0.215 |
| ACGTGAGG | -0.149 |
| ATTAATGA | 0.238 |
| ATCAGAGG | 0.0664 |
| AAACAATC | 0.127 |
| AGGGGCGC | -0.166 |
| AAACTTTC | -0.155 |
| AAGGAGCC | -0.0114 |
| ATCTTTAA | 0.214 |
| ACTTATAT | 0.262 |
| ACAGGCGT | -0.254 |
| CTTTGATA | 0.0969 |
| AGGAGGAG | 0.00872 |
| CGGTGTTC | -0.315 |
| AAAGCCCC | -0.311 |
| CAAGATTA | 0.199 |
| CTTGTCTC | -0.0452 |

| Sequence | PBM E-score |
| --- | --- |
| CCATGCTC | -0.0657 |
| CTCTGTGC | -0.219 |
| CAAAAGAA | 0.0512 |
| CAAAGCAG | 0.0146 |
| CGGTATCA | 0.0688 |
| CCAACGGG | -0.238 |
| AGAACATG | -0.0407 |
| GACGTCCC | -0.291 |
| AGGTCGGA | -0.2 |
| CATGTATC | -0.0361 |
| TGCTTAAA | -0.0449 |
| GCCCTTCA | -0.0187 |
| ATTTACTC | 0.133 |
| TAAACCAA | -0.0214 |
| AGCGTAAT | -0.0242 |
| CGGCTGCC | -0.167 |
| TCCAGTCA | 0.307 |
| GATTTAGC | 0.185 |
| ACGGGCCG | -0.147 |
| AGGATGTG | 0.111 |
| ATAGACAT | 0.219 |
| CTTCGGCC | -0.0947 |
